Sequences and labels used below:
T1: G-CSF receptor G-CSFR (R & D company, Item No. 381GR/CF) (UniProt Q99062 25-621, limits assumed)
T1 construct: Bought reagent, amine-coupled to a CM5 chip; also called the receptor
T1 sequence (looked up): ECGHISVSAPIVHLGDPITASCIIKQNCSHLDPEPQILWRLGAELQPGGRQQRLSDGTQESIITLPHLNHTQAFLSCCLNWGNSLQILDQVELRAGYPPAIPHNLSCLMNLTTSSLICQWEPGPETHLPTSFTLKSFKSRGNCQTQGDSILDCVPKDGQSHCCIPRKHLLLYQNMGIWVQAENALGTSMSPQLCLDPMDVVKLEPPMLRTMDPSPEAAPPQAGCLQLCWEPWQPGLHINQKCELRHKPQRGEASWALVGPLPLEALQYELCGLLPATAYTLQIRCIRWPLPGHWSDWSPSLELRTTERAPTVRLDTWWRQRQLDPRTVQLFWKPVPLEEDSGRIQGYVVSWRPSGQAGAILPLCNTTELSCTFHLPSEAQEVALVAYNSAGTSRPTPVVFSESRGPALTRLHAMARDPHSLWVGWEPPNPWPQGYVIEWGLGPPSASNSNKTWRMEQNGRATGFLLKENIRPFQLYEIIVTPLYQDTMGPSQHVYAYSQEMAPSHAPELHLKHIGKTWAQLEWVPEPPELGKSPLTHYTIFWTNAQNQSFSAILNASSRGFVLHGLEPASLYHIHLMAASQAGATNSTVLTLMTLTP

B1: rHSA/G-CSF mutant L15I (ligand)
chain: [not shown - about 600 residues]TPLGPASSLPQSFLIKCLEQVRKIQGDGAALQEKLCATYKLCHPEELVLLGHSLGIPWAPLSSCPSQALQLAGCLSQLHSGLFLYQGLLQALEGISPELGPTLDTLQLDVADFATTIWQQMEELGMAPALQPTQGAMPAFASAFQRRAGGVLVASHLQSFLEVSYRVLRHLAQP
notes: expressed in Pichia pastoris
B2: rHSA/G-CSF mutant P5R (ligand)
chain: [not shown - about 600 residues]TPLGRASSLPQSFLLKCLEQVRKIQGDGAALQEKLCATYKLCHPEELVLLGHSLGIPWAPLSSCPSQALQLAGCLSQLHSGLFLYQGLLQALEGISPELGPTLDTLQLDVADFATTIWQQMEELGMAPALQPTQGAMPAFASAFQRRAGGVLVASHLQSFLEVSYRVLRHLAQP
notes: expressed in Pichia pastoris
B3: rHSA/G-CSF mutant P2K (ligand)
chain: [not shown - about 600 residues]TKLGPASSLPQSFLLKCLEQVRKIQGDGAALQEKLCATYKLCHPEELVLLGHSLGIPWAPLSSCPSQALQLAGCLSQLHSGLFLYQGLLQALEGISPELGPTLDTLQLDVADFATTIWQQMEELGMAPALQPTQGAMPAFASAFQRRAGGVLVASHLQSFLEVSYRVLRHLAQP
notes: expressed in Pichia pastoris
B4: rHSA/G-CSF mutant P10K (ligand)
chain: [not shown - about 600 residues]TPLGPASSLKQSFLLKCLEQVRKIQGDGAALQEKLCATYKLCHPEELVLLGHSLGIPWAPLSSCPSQALQLAGCLSQLHSGLFLYQGLLQALEGISPELGPTLDTLQLDVADFATTIWQQMEELGMAPALQPTQGAMPAFASAFQRRAGGVLVASHLQSFLEVSYRVLRHLAQP
notes: expressed in Pichia pastoris
B5: rHSA/G-CSF mutant Q20N (ligand)
chain: [not shown - about 600 residues]TPLGPASSLPQSFLLKCLENVRKIQGDGAALQEKLCATYKLCHPEELVLLGHSLGIPWAPLSSCPSQALQLAGCLSQLHSGLFLYQGLLQALEGISPELGPTLDTLQLDVADFATTIWQQMEELGMAPALQPTQGAMPAFASAFQRRAGGVLVASHLQSFLEVSYRVLRHLAQP
notes: expressed in Pichia pastoris
B6: rHSA/G-CSF mutant Q11N (ligand)
chain: [not shown - about 600 residues]TPLGPASSLPNSFLLKCLEQVRKIQGDGAALQEKLCATYKLCHPEELVLLGHSLGIPWAPLSSCPSQALQLAGCLSQLHSGLFLYQGLLQALEGISPELGPTLDTLQLDVADFATTIWQQMEELGMAPALQPTQGAMPAFASAFQRRAGGVLVASHLQSFLEVSYRVLRHLAQP
notes: expressed in Pichia pastoris
B7: rHSA/G-CSF mutant T116S (ligand)
chain: [not shown - about 600 residues]TPLGPASSLPQSFLLKCLEQVRKIQGDGAALQEKLCATYKLCHPEELVLLGHSLGIPWAPLSSCPSQALQLAGCLSQLHSGLFLYQGLLQALEGISPELGPTLDTLQLDVADFATSIWQQMEELGMAPALQPTQGAMPAFASAFQRRAGGVLVASHLQSFLEVSYRVLRHLAQP
notes: expressed in Pichia pastoris
B8: rHSA/G-CSF mutant L108I (ligand)
chain: [not shown - about 600 residues]TPLGPASSLPQSFLLKCLEQVRKIQGDGAALQEKLCATYKLCHPEELVLLGHSLGIPWAPLSSCPSQALQLAGCLSQLHSGLFLYQGLLQALEGISPELGPTLDTLQIDVADFATTIWQQMEELGMAPALQPTQGAMPAFASAFQRRAGGVLVASHLQSFLEVSYRVLRHLAQP
notes: expressed in Pichia pastoris
B9: rHSA/G-CSF mutant L41I (ligand)
chain: [not shown - about 600 residues]TPLGPASSLPQSFLLKCLEQVRKIQGDGAALQEKLCATYKICHPEELVLLGHSLGIPWAPLSSCPSQALQLAGCLSQLHSGLFLYQGLLQALEGISPELGPTLDTLQLDVADFATTIWQQMEELGMAPALQPTQGAMPAFASAFQRRAGGVLVASHLQSFLEVSYRVLRHLAQP
notes: expressed in Pichia pastoris
B10: rHSA/G-CSF mutant L35I (ligand)
chain: [not shown - about 600 residues]TPLGPASSLPQSFLLKCLEQVRKIQGDGAALQEKICATYKLCHPEELVLLGHSLGIPWAPLSSCPSQALQLAGCLSQLHSGLFLYQGLLQALEGISPELGPTLDTLQLDVADFATTIWQQMEELGMAPALQPTQGAMPAFASAFQRRAGGVLVASHLQSFLEVSYRVLRHLAQP
notes: expressed in Pichia pastoris
B11: rHSA/G-CSF mutant L35I + K40H (ligand)
chain: [not shown - about 600 residues]TPLGPASSLPQSFLLKCLEQVRKIQGDGAALQEKICATYHLCHPEELVLLGHSLGIPWAPLSSCPSQALQLAGCLSQLHSGLFLYQGLLQALEGISPELGPTLDTLQLDVADFATTIWQQMEELGMAPALQPTQGAMPAFASAFQRRAGGVLVASHLQSFLEVSYRVLRHLAQP
notes: expressed in Pichia pastoris
B12: rHSA/G-CSF mutant T1A (ligand)
chain: [not shown - about 600 residues]APLGPASSLPQSFLLKCLEQVRKIQGDGAALQEKLCATYKLCHPEELVLLGHSLGIPWAPLSSCPSQALQLAGCLSQLHSGLFLYQGLLQALEGISPELGPTLDTLQLDVADFATTIWQQMEELGMAPALQPTQGAMPAFASAFQRRAGGVLVASHLQSFLEVSYRVLRHLAQP
notes: expressed in Pichia pastoris
B13: rHSA/G-CSF mutant Q120K (ligand)
chain: [not shown - about 600 residues]TPLGPASSLPQSFLLKCLEQVRKIQGDGAALQEKLCATYKLCHPEELVLLGHSLGIPWAPLSSCPSQALQLAGCLSQLHSGLFLYQGLLQALEGISPELGPTLDTLQLDVADFATTIWQKMEELGMAPALQPTQGAMPAFASAFQRRAGGVLVASHLQSFLEVSYRVLRHLAQP
notes: expressed in Pichia pastoris
B14: rHSA/G-CSF mutant L124I (ligand)
chain: [not shown - about 600 residues]TPLGPASSLPQSFLLKCLEQVRKIQGDGAALQEKLCATYKLCHPEELVLLGHSLGIPWAPLSSCPSQALQLAGCLSQLHSGLFLYQGLLQALEGISPELGPTLDTLQLDVADFATTIWQQMEEIGMAPALQPTQGAMPAFASAFQRRAGGVLVASHLQSFLEVSYRVLRHLAQP
notes: expressed in Pichia pastoris
B15: rHSA/G-CSF mutant Q70K (ligand)
chain: [not shown - about 600 residues]TPLGPASSLPQSFLLKCLEQVRKIQGDGAALQEKLCATYKLCHPEELVLLGHSLGIPWAPLSSCPSQALKLAGCLSQLHSGLFLYQGLLQALEGISPELGPTLDTLQLDVADFATTIWQQMEELGMAPALQPTQGAMPAFASAFQRRAGGVLVASHLQSFLEVSYRVLRHLAQP
notes: expressed in Pichia pastoris
B16: rHSA/G-CSF mutant P44K (ligand)
chain: [not shown - about 600 residues]TPLGPASSLPQSFLLKCLEQVRKIQGDGAALQEKLCATYKLCHKEELVLLGHSLGIPWAPLSSCPSQALQLAGCLSQLHSGLFLYQGLLQALEGISPELGPTLDTLQLDVADFATTIWQQMEELGMAPALQPTQGAMPAFASAFQRRAGGVLVASHLQSFLEVSYRVLRHLAQP
notes: expressed in Pichia pastoris
B17: rHSA/G-CSF mutant S7T (ligand)
chain: [not shown - about 600 residues]TPLGPATSLPQSFLLKCLEQVRKIQGDGAALQEKLCATYKLCHPEELVLLGHSLGIPWAPLSSCPSQALQLAGCLSQLHSGLFLYQGLLQALEGISPELGPTLDTLQLDVADFATTIWQQMEELGMAPALQPTQGAMPAFASAFQRRAGGVLVASHLQSFLEVSYRVLRHLAQP
notes: expressed in Pichia pastoris
B18: rHSA/G-CSF mutant S12T (ligand)
chain: [not shown - about 600 residues]TPLGPASSLPQTFLLKCLEQVRKIQGDGAALQEKLCATYKLCHPEELVLLGHSLGIPWAPLSSCPSQALQLAGCLSQLHSGLFLYQGLLQALEGISPELGPTLDTLQLDVADFATTIWQQMEELGMAPALQPTQGAMPAFASAFQRRAGGVLVASHLQSFLEVSYRVLRHLAQP
notes: expressed in Pichia pastoris
B19: rHSA/G-CSF mutant Q90K (ligand)
chain: [not shown - about 600 residues]TPLGPASSLPQSFLLKCLEQVRKIQGDGAALQEKLCATYKLCHPEELVLLGHSLGIPWAPLSSCPSQALQLAGCLSQLHSGLFLYQGLLKALEGISPELGPTLDTLQLDVADFATTIWQQMEELGMAPALQPTQGAMPAFASAFQRRAGGVLVASHLQSFLEVSYRVLRHLAQP
notes: expressed in Pichia pastoris
B20: rHSA/G-CSF mutant Q119N (ligand)
chain: [not shown - about 600 residues]TPLGPASSLPQSFLLKCLEQVRKIQGDGAALQEKLCATYKLCHPEELVLLGHSLGIPWAPLSSCPSQALQLAGCLSQLHSGLFLYQGLLQALEGISPELGPTLDTLQLDVADFATTIWNQMEELGMAPALQPTQGAMPAFASAFQRRAGGVLVASHLQSFLEVSYRVLRHLAQP
notes: expressed in Pichia pastoris
B21: rHSA/G-CSF mutant L35I + L41I (ligand)
chain: [not shown - about 600 residues]TPLGPASSLPQSFLLKCLEQVRKIQGDGAALQEKICATYKICHPEELVLLGHSLGIPWAPLSSCPSQALQLAGCLSQLHSGLFLYQGLLQALEGISPELGPTLDTLQLDVADFATTIWQQMEELGMAPALQPTQGAMPAFASAFQRRAGGVLVASHLQSFLEVSYRVLRHLAQP
notes: expressed in Pichia pastoris
B22: rHSA/G-CSF mutant T38S (ligand)
chain: [not shown - about 600 residues]TPLGPASSLPQSFLLKCLEQVRKIQGDGAALQEKLCASYKLCHPEELVLLGHSLGIPWAPLSSCPSQALQLAGCLSQLHSGLFLYQGLLQALEGISPELGPTLDTLQLDVADFATTIWQQMEELGMAPALQPTQGAMPAFASAFQRRAGGVLVASHLQSFLEVSYRVLRHLAQP
notes: expressed in Pichia pastoris

This assay has as its target T1, G-CSF receptor G-CSFR (R & D company, …). In words: SPR (Biacore 3000), G-CSFR amine-coupled to CM5 chip, 1:1 Langmuir fit. As for the experimental part:
The receptor G-CSFR (R & D company, Item No. 381GR/CF) was coupled to FC₄ cell of a CM5 chip by using an amine coupling method in Biacore® 3000 control software Wizard. HBS-P buffer (10 mM HEPES, 150 mM NaCl, and 0.005% (v/v) surfactant P20, pH 7.4) was used as the working buffer, and 1 mg/mL of G-CSFR was diluted with 10 mM NaAC (pH 4.5) to a final concentration of 20 μg/mL. A 1:1 mixture of 0.2 M EDC and 50 mM NHS was injected by flowing through the surface of the chip at a rate of 10 μL/min, G-CSFR solution was injected, then 1 M ethanolamine (pH 8.5) was injected for 7 min to block the activated chip surface.
rHSA/mG-CSF and G-CSF standards were quantitatively diluted with a HBS-P buffer, and a kinetic test was conducted following a kinetic analysis Wizard in Biacore® 3000 control software. All the samples were injected at the flow rate of 30 μL/min, and the injection time of 3 min. After 5 min of disassociation, 50 mM NaOH, 1 M NaCL, and HBS-P buffer were respectively injected for 15 s and 60 s at a flow rate of 100 μL/min for regeneration. The obtained data was fitted using a 1:1 Langmuir binding model in Biacore 3000 analysis software, to obtain exact kinetic constants: […]
(In SPR one partner is held on a chip, and binding of the other changes the refractive index at the surface.)
For the molecule B1, the Kd was 4.8 nM.

For the molecule B2, binding was put at a Kd of 1.5 nM.

Regarding B3, the dissociation constant Kd was 1.2 nM.

Molecule B4 yielded a Kd of 0.9 nM.

B5 yielded an equilibrium dissociation constant (Kd) of 97.5 nM.

Take B6: binding was put at a Kd of 3.4 nM.

B7 had an equilibrium dissociation constant (Kd) of 2.5 nM.

For B8, the Kd was 7.2 nM.

The molecule B9 displayed a Kd of 17.1 nM.

Molecule B10 yielded a Kd of 12.5 nM.

B11 gave a Kd of 25.5 nM.

With B12, the Kd is 1.7 nM.

Molecule B13 yielded a Kd of 1.5 nM.

On to B14, for which the Kd was found to be 1.4 nM.

The molecule B15 gave a Kd of 5.9 nM.

In turn, B16 gave a dissociation constant (Kd) of 1.6 nM.

Regarding B17, binding was characterised by a dissociation constant (Kd) of 1.6 nM.

As for B18, the affinity, expressed as Kd, was 1.1 nM.

With B19, the Kd came to 6.8 nM.

B20 had a dissociation constant Kd of 1.8 nM.

B21: the equilibrium dissociation constant (Kd) amounted to 23.5 nM.

In turn, B22 returned an equilibrium dissociation constant (Kd) of 6.7 nM.

The term Kd denotes the free concentration of one partner at which half of the binding sites on the other are occupied at equilibrium, for simple one-to-one binding. Read a low Kd as higher affinity.
